Measured values taken from PubChem BioAssay AID624417 (National Center for Advancing Translational Sciences (NCATS), 2012).
Hit rate of the full screen: of about 410,000 compounds, about 6,400 (1.6%) were called active. This list was built around the results that the source calls inconclusive (neither active nor inactive); the mix of calls is not that of the screen. Calls follow the shape of the dose curve; as a rule, active = well fitted inhibition curve with a large enough effect; inconclusive = small, poorly fitted or top-dose-only effect; inactive = no such curve, though single readings can be large or run the other way. No potency is given beside an inconclusive call; the fits are too rough.

Biological target: Glucagon-like peptide 1 receptor (Homo sapiens) (UniProt P43220)
UniProt P43220, sequence (P43220 whole entry, looked up): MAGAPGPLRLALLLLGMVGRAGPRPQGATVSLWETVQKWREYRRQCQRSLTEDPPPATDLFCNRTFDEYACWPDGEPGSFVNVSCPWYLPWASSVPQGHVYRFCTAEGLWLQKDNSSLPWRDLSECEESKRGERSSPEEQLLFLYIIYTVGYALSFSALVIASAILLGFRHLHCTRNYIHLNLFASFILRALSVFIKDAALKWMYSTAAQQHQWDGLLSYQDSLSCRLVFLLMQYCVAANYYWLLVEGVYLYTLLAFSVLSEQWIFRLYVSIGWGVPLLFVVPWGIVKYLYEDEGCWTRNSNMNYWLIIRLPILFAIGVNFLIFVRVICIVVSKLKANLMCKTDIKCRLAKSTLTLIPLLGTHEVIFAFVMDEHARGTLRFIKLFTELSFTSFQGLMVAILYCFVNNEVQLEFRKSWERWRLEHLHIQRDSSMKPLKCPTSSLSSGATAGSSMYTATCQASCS
Assay: qHTS of GLP-1 Receptor Inverse Agonists (Inhibition Mode); also: nearly all actives have a fitted effect of over 55% in size
Details: HEK293 GLP-1R CRE-luciferase, luminescence, 24 h, GLP-1R form is constitutively active; activity change, negative = inhibition: at 38.3 µM (top of the series) unless noted
In short: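 HEK293 cells stably co-expressing a cAMP-responsive luciferase reporter and constitutively active GLP-1R were seeded, incubated 12 h, then exposed to compounds for 24 h at 37 C. Luminescence was read 12 min after detection reagent; inverse agonists lower signal.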
% is scaled to controls: 0 for no effect and ±100 for the full control effect; potency is read from the fitted curve at half-maximal effect; tags tell the direction and shape of the fitted curve.

**Q.** With `O=C(CCc1ccccc1)NC(=S)NCc1ccco1` as the compound, how does the Potency read?
**A.** The Potency was inconclusive [inhibitor, single point].

**Q.** With `COc1cc(C)nc(N(C)S(=O)(=O)c2ccccc2Cl)n1` as the compound, how does the Potency read?
**A.** Its Potency is inconclusive [inhibitor, partial curve, poor fit].

**Q.** `CCn1c(=O)c2cc(C(=O)N(CCCOC(C)C)Cc3ccco3)sc2c2ccccc21` was tested. Which Potency did it give?
**A.** The Potency was inconclusive [inhibitor, partial curve, poor fit].

**Q.** With `COc1ccc(SC[C@H](CC(C)C)N2CCN(CCc3ccccc3)CCC2=O)cc1` as the compound, how does the Potency read?
**A.** The Potency was inconclusive [inhibitor, single point].

**Q.** How did the Potency turn out when `CCOC(=O)C(CCCOc1cccc(CC)c1)C(=O)OCC` was run?
**A.** Its Potency is inconclusive [inhibitor, single point].

**Q.** Which Potency does the source give for `CCOc1cc(C2C(C(=O)OC)=CN(Cc3ccc(Cl)cc3)C=C2C(=O)OC)ccc1O` here?
**A.** Its Potency is inconclusive [inhibitor, partial curve, poor fit].

**Q.** How did the Potency turn out when `CCOC(=O)CN(c1ccccc1C)S(=O)(=O)c1ccc(Cl)cc1` was run?
**A.** Its Potency is inconclusive [inhibitor, partial curve, poor fit].

**Q.** Which Potency does the source give for `COc1ccccc1C(=O)Nc1ccc2nc(N3CCC(C)CC3)cc(C)c2c1` here?
**A.** The Potency was inconclusive [inhibitor, single point].

**Q.** How did the Potency turn out when `Cc1ccc(C(=O)Nc2ccc(Br)cc2)cc1S(=O)(=O)N1CCOCC1` was run?
**A.** The Potency was inconclusive [inhibitor, partial curve].

**Q.** With `COc1ccccc1NS(=O)(=O)c1cccc(C(=O)NCC(c2ccccc2OC)N2CCCC2)c1` (configuration not stated) as the compound, how does the Potency read?
**A.** Its Potency is inconclusive [inhibitor, single point].

**Q.** `CS(=O)(=O)N1CCC(NC(=O)Nc2ccc(OC(F)(F)F)cc2)CC1` was tested. Which Potency did it give?
**A.** The Potency was inconclusive [inhibitor, partial curve, poor fit].

**Q.** `O=C(NC(=S)Nc1ccccc1N1CCCCC1)c1ccc(F)cc1` was tested. Which Potency did it give?
**A.** The Potency was active: 12.6 µM.

**Q.** With `Cc1ccc(-c2cccc(NC(=O)C3C(C(=O)O)[C@@H]4C=C[C@H]3C4)c2)o1` (some centres not stated) as the compound, how does the Potency read?
**A.** Its Potency is inconclusive [inhibitor, single point].

**Q.** `Fc1cccc(/C=N/Nc2nccnc2Cl)c1` was tested. Which Potency did it give?
**A.** Its Potency is inconclusive [inhibitor, single point].

**Q.** Which “activity change, negative = inhibition” value does the source give for `O=C(CN1C(=O)C2CC=CCC2C1=O)OCC(=O)c1ccc(Cl)c([N+](=O)[O-])c1` (configuration not stated) here?
**A.** The value was inactive: 26.8%.

**Q.** With `c1ccc(OCc2noc(CN3CC[C@@H]4CCCC[C@H]4C3)n2)cc1` as the compound, how does the Potency read?
**A.** Its Potency is inconclusive [inhibitor, partial curve, poor fit].

**Q.** `O=C(c1ccccc1)c1coc2c1C(=O)c1ccccc1C2=O` was tested. Which “activity change, negative = inhibition” value did it give?
**A.** The value was inactive: 25.3%.
